B1: profilin-1 A20T (ALS-associated variant) (natural protein)
chain: not shown
B2: profilin-1 M114T (ALS-associated variant) (natural protein)
chain: not shown
B3: profilin-1 T109M (ALS-associated variant) (natural protein)
chain: not shown
B4: profilin-1 E117G (ALS-associated variant) (natural protein)
chain: not shown
B5: profilin-1 G118V (ALS-associated variant) (natural protein)
chain: not shown
B6: profilin-1 H120E (actin-binding impaired control) (natural protein)
chain: not shown
B7: profilin-1 R136W (ALS-associated variant) (natural protein)
chain: not shown
B8: profilin-1 Q139L (ALS-associated variant) (natural protein)
chain: not shown

The assay concerns the target Rabbit skeletal muscle actin (unlabeled actin monomers) (rabbit, UniProt P68135). Briefly: fluorescence polarisation. (In general: In fluorescence polarisation assays a small probe gives low polarisation when free and higher when bound to something large.)
B1 gave a Kd of 148 ± 16.6 nM.
For B2, the binding result is recorded as “binds”.
B3: the Kd was found to be 204 ± 33.4 nM.
Still for that read-out and setting: in the case of B4 it was 113 ± 16.5 nM; in that of B5, 1200 ± 311 nM.
On the same count and under the same terms, then B6, with 6720 ± 5420 nM; and B7, with 825 ± 17.6 nM; and B8, with 77.9 ± 4.9 nM.

For orientation: Kd means the free concentration of one partner at which half of the binding sites on the other are occupied at equilibrium, for simple one-to-one binding.

Values taken from PMC10163920 (European journal of cell biology, 2022).
